For one compound, Ki results are on record in publication PMC2821452 (Synapse (New York, N.Y.), 2010).

Molecules are shown by their SMILES. Structures can show the parent of a compound that is named as a salt.

One test has as its target cloned human KOR (Homo sapiens, UniProt P41145). The conditions noted are these: read-out: KI KOR; [125I]IOXY; mean±SD, n=3.
In a further test the target is cloned human MOR (Homo sapiens, UniProt P35372). The conditions noted are these: read-out: KI MOR; [125I]IOXY; mean±SD, n=3.
For a further test, the target named is cloned human DOR (Homo sapiens, UniProt P41143). The conditions noted are these: read-out: KI DOR; [125I]IOXY; mean±SD, n=3.
Chain of UniProt P41143 (P41143 whole entry): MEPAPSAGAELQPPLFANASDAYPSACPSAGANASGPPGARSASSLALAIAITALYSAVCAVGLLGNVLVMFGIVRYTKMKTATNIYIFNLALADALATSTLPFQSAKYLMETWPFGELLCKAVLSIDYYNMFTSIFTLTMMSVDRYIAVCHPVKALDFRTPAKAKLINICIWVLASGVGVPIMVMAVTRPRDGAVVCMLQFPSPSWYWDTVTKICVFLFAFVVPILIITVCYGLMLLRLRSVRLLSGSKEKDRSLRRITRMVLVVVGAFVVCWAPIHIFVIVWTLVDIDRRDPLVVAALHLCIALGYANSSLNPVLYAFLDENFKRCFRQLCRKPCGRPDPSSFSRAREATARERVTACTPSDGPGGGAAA

Chain of UniProt P35372 (P35372 whole entry): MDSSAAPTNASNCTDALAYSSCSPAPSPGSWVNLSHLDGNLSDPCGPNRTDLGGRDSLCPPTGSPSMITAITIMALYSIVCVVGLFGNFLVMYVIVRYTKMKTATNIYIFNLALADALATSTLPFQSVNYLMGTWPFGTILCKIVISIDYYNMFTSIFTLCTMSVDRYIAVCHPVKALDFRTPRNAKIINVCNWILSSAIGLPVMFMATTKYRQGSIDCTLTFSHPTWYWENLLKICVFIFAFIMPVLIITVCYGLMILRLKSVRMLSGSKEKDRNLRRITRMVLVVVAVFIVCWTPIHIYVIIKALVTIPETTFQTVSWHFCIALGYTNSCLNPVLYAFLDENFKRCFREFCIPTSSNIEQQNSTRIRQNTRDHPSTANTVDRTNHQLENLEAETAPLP
Chain of UniProt P41145 (P41145 whole entry): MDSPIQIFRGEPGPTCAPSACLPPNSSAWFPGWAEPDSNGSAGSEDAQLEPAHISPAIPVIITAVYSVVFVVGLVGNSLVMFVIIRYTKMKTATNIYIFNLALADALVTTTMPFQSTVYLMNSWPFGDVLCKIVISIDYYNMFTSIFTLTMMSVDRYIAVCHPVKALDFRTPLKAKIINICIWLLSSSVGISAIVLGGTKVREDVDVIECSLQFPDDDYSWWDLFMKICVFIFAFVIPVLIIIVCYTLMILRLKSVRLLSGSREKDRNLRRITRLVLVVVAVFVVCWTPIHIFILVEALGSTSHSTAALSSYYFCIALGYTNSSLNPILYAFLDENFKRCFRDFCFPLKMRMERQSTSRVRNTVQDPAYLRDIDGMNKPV

As to `Oc1cccc([C@]23CCC[C@H](C2)N(C/C=C\c2ccccc2)CC3)c1` [KC-2-009, (+)-3-((1R,5S)-2-((Z)-3-Phenylallyl)-2-azabicyclo[3.3.1]nonan-5-yl)phenol hydrochloride], the figures for the Ki on cloned human KOR, on cloned human MOR and at cloned human DOR were 0.123 ± 0.004 µM, 0.026 ± 0.002 µM and 0.454 ± 0.025 µM, respectively.

As usually defined, the Ki is the equilibrium dissociation constant of an inhibitor or competing ligand from its target.
